# Data as given in PubChem BioAssay AID588855 (National Center for Advancing Translational Sciences (NCATS), 2011).
# Hit rate of the full screen: of about 410,000 compounds, about 5,000 (1.2%) were called active. The shares of active, inactive and inconclusive entries below differ from those in the screen. Calls come from the whole dose curve; as a rule, active = well fitted inhibition curve with a large enough effect; inconclusive = small, poorly fitted or top-dose-only effect; inactive = no such curve, though single readings can be large or run the other way. Potencies beside an inconclusive call are fits to weak or partial responses and may not hold up.
# Experiment: qHTS for Inhibitors of TGF-b; note: nearly all actives have a fitted effect of over 65% in size
# Settings: HepG2 CAGA-GFP TGF-b/SMAD3 reporter, GFP fluorescence, 18 h, TGF-beta stimulated, 500 pg/mL final; series mostly up to 46.1 µM
# Outline: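 Inhibition of TGF-beta-driven CAGA-GFP reporter expression in HEPG2 cells is measured by cellular GFP fluorescence after 18 h stimulation with 500 pg/mL recombinant TGF-beta in 1% FBS medium at 37 degrees C.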
# Potency is the fitted concentration of half-maximal effect; tags give direction and shape of the fitted curve.
row,SMILES,Potency
1,c1ccc(-c2onc(-c3ccco3)c2-c2ccc3c(c2)OCO3)cc1,"inconclusive: 20 µM [inhibitor, single point]"
2,O=C(NCCCN1CCN(c2cccc(Cl)c2)CC1)c1nc(-c2ccncc2)no1,inactive
3,COc1cccc(N(CC(=O)N2CCc3ccccc3C2)S(C)(=O)=O)c1,"inconclusive: 35.5 µM [inhibitor, partial curve, poor fit]"
4,O=C1CC(=C2c3ccccc3-c3ccccc32)C(=O)N1CCN1CCN(c2ccccc2)CC1,inactive
5,C=C(C)Cn1c(SCC)nc2ccccc2c1=O,"inconclusive: 1.12 µM [inhibitor, full curve, poor fit]"
6,Cc1cccc(Nc2nc3c(s2)CCCC3)c1,"inconclusive: 20 µM [inhibitor, single point]"
7,COc1ccc(S(=O)(=O)N2CCc3cc4c(cc3C2C)OCCCO4)cc1 (configuration not stated),"inconclusive: 35.5 µM [inhibitor, single point]"
8,CCC(C)c1ccc(NC(=S)N2CCN(c3ccccn3)CC2)cc1 (configuration not stated),"inconclusive: 11.2 µM [inhibitor, partial curve]"
9,Cc1cc(NC(=O)CN2CCCCCCC2)no1,"inconclusive: 5.62 µM [inhibitor, partial curve, poor fit]"
10,O=S(=O)(c1cccc(C(F)(F)F)c1)N1CCN(C(=S)NC2CC2)CC1,inactive
11,Cc1nnc(NC(=O)CCC(=O)N2CCN(CCOc3cccc4ccccc34)CC2)s1,inactive
12,CCn1cc(C(=O)N[C@@H](CC(C)C)C(=O)NCCCn2ccnc2)c(=O)c2cc3c(cc21)OCO3,"inconclusive: 35.5 µM [inhibitor, single point]"
13,Cc1onc(-c2c(F)cccc2Cl)c1C(=O)Oc1ccccc1,"inconclusive: 7.94 µM [inhibitor, partial curve]"
14,COc1ccc(-c2nc3ccccc3o2)cc1NC(=O)COc1ccc(C)c(C)c1,inactive
15,O=C1CCc2ccccc2O1,inactive
16,OC(Cc1ccccc1)c1ncc(-c2ccc(Cl)cc2)[nH]1 (configuration not stated),"inconclusive: 35.5 µM [inhibitor, single point]"
17,CC(C)(C)NC(=S)N/N=C/c1cc(Br)c(O)c(Br)c1,"inconclusive: 35.5 µM [inhibitor, single point]"
18,O=C(C(Br)=Cc1ccccc1)c1ccccc1,active: 10 µM
19,COc1ccc(S(=O)(=O)N(CC(=O)N2CCc3ccccc3C2)c2ccc(C)cc2)cc1,"inconclusive: 35.5 µM [inhibitor, partial curve, poor fit]"
20,O=C(CNC(=O)c1ccc(F)cc1)N/N=C/c1cc(Br)ccc1OC(=O)/C=C/c1ccco1,"inconclusive: 5.62 µM [inhibitor, partial curve]"
21,COc1ccc(/C=C2\SC(c3ccc(C)cc3)=NC2=O)cc1OC,"inconclusive: 7.08 µM [inhibitor, partial curve]"
22,CC(OC(=O)CCN1C(=O)C2CC=CCC2C1=O)C(=O)Nc1ccc(F)cc1 (configuration not stated),inactive
23,Cc1ccc(C(=O)N2CCN(c3ccc(NC(=S)NC(=O)c4cccs4)cc3)CC2)cc1,inactive

row,SMILES,Potency
1,O=C(Nc1nc(-c2ccc(Cl)s2)cs1)c1ccncc1,"inconclusive: 2.24 µM [inhibitor, full curve]"
2,COCc1cccc(-c2csc(C(O)c3ccc(F)c(F)c3)n2)c1 (configuration not stated),"inconclusive: 1.58 µM [inhibitor, partial curve, poor fit]"
3,CCOC(=O)C1Sc2[nH]c(=O)sc2C(c2ccc(Cl)cc2)C1C(=O)OCC (configuration not stated),"inconclusive: 35.5 µM [inhibitor, single point]"
4,CCC(=O)N1c2ccccc2NC2=C(C(=O)CCC2)C1c1ccco1 (configuration not stated),"inconclusive: 0.355 µM [inhibitor, partial curve, poor fit]"
5,O=C(NC(=S)Nc1cccc(Cl)c1N1CCCCC1)c1ccc2c(c1)OCCO2,"inconclusive: 6.31 µM [inhibitor, partial curve, poor fit]"
6,COc1ccc(CC(=O)Nc2ccc3nc(Nc4cccc(Cl)c4)cc(C)c3c2)cc1,"inconclusive: 35.5 µM [inhibitor, single point]"
7,Cc1cc(C)c(NC(=O)CSc2ccc(-c3cccnc3)nn2)c(C)c1,inactive
8,O=C(N/N=C/c1sc(N2CCOCC2)nc1-c1ccccc1)c1ccccc1O,"inconclusive: 35.5 µM [inhibitor, single point]"
9,O=C(Nc1nc(-c2cccs2)cs1)c1ccc(Cl)s1,"inconclusive: 11.2 µM [inhibitor, partial curve, poor fit]"
10,CC(C(=O)NC1C=CS(=O)(=O)C1)N1C(=O)/C(=C/c2ccc(Cl)cc2)SC1=S (configuration not stated),inactive
11,COc1ccccc1NC(=S)N(CCc1nc2cc(C)c(C)cc2[nH]1)Cc1cccnc1,"inconclusive: 8.91 µM [inhibitor, partial curve]"
12,CC(C)N(Cc1cn[nH]c1-c1ccc(-c2ccccc2)cc1)Cc1nccn1C,"inconclusive: 35.5 µM [inhibitor, single point]"
13,CCNc1ccc(S(=O)(=O)N(C)C)cc1NCC(=O)Nc1ccc(F)c(Cl)c1,"inconclusive: 35.5 µM [inhibitor, single point]"
14,Nc1c(C(=O)NCCc2ccccc2)nnn1CC(=O)Nc1ccc(Cl)cc1,inactive
15,CC(C)CCNC(=O)C12CN(Cc3ccccc3)CC1C(c1cccc([N+](=O)[O-])c1)=NO2 (configuration not stated),"inconclusive: 35.5 µM [inhibitor, single point]"
16,Cc1cc2c(cc1S(=O)(=O)N(C)c1ccccc1)NC(=O)CO2,inactive
17,COc1cc(NS(=O)(=O)c2ccc3[nH]c4c(c3c2)CCCC4)cc(OC)c1OC,"inconclusive: 11.2 µM [inhibitor, partial curve, poor fit]"
18,C=Cc1ccc(Cn2c(C(=O)O)c(CNCCc3ccccc3)c3ccc(C)cc32)cc1,"inconclusive: 22.4 µM [inhibitor, single point]"
19,O=C1/C(=C\c2ccc(Cl)c(Cl)c2)CN(C(=O)CCN2CCOCC2)C/C1=C/c1ccc(Cl)c(Cl)c1,active: 2.82 µM
20,CC(C)NS(=O)(=O)c1ccc(OCC(=O)Nc2ccc3c(c2)OCO3)c(Cl)c1,"inconclusive: 35.5 µM [inhibitor, single point]"
21,O=C(O)CNC(=O)C12CC3CC(CC(Cl)(C3)C1)C2,inactive
22,CN1CCN(C2(CNC(=O)c3ccc([N+](=O)[O-])cc3)CCCCC2)CC1,inactive
23,Cc1ccccc1-c1nc2scc(CCNC(=O)C(=O)Nc3ccc(F)cc3F)n2n1,inactive

row,SMILES,Potency
1,CCC(C)C(NC(=O)C1CCC(C)CC1)C(=O)NCc1cccnc1 (configuration not stated),"inconclusive: 14.1 µM [inhibitor, single point]"
2,CC(=O)Nc1ccc(-c2cc(-c3ccc(NC(C)=O)cc3)nc(-c3ccccc3)n2)cc1,"inconclusive: 2.82 µM [inhibitor, partial curve, poor fit]"
3,COc1ccc(CNC(=O)CCC2N=C3c4ccccc4N=C(SCc4ccc(F)cc4)N3C2=O)cc1 (configuration not stated),"inconclusive: 35.5 µM [inhibitor, single point]"
4,COc1ccc(OC)c(NC(=O)c2c(NCc3ccc(OC)c(OC)c3)sc3c2CCC(C)C3)c1 (configuration not stated),"inconclusive: 25.1 µM [inhibitor, single point]"
5,O=C(C1CCCCC1)N(Cc1cccnc1)c1nc2c(F)cc(F)cc2s1,active: 22.4 µM
6,CCN1CCOC(=O)C1CC(=O)Nc1ccc(C)c(Cl)c1 (configuration not stated),"inconclusive: 35.5 µM [inhibitor, single point]"
7,Cn1c(/C=N/c2nc3ccccc3[nH]2)nc2ccccc21,"inconclusive: 15.8 µM [inhibitor, single point]"
8,COc1ccccc1N(C)S(=O)(=O)c1ccc(Cl)c(C(=O)N2CCC2)c1,inactive
9,Cc1cccc(C(=O)Nc2ccc(C(=O)/C=C/c3ccncc3)cc2)c1,active: 11.2 µM
10,O=C(O)CSc1nnc(Cn2cnc3ccccc32)n1CCc1ccccc1,"inconclusive: 5.62 µM [inhibitor, full curve, poor fit]"
11,CC(=O)n1cc([C@@H]2C=C(C(=O)N3CCN(Cc4ccc5c(c4)OCO5)CC3)O[C@H](OCc3ccc(CO)cc3)C2)c2ccccc21,"inconclusive: 14.1 µM [inhibitor, partial curve, poor fit]"
12,Cc1ccc2nc(NC(=O)c3ccc(S(=O)(=O)N4CCCc5ccccc54)cc3)sc2c1,inactive
13,CCCCn1c(N)c(N(CCOC)C(=O)c2ccc(S(=O)(=O)N(CC)c3ccccc3)cc2)c(=O)[nH]c1=O,"inconclusive: 35.5 µM [inhibitor, single point]"
14,COc1cc(OC)cc(C(=O)Nc2ccc(S(=O)(=O)Nc3ccccn3)cc2)c1,inactive
15,O=C(C[C@H]1C(=O)N(C2CCCCC2)C[C@@H]1Cc1ccccc1)Nc1ccccc1,inactive
16,O=C1c2ccc3c4c(ccc(c24)C(=O)N1c1cccc(O)c1)C(=O)N(c1cccc(O)c1)C3=O,active: 3.98 µM
17,COCCN(Cc1ccccc1)C(=O)C1CCN(C(=O)Nc2ccccc2)CC1,inactive
18,CCOC(=O)c1ccc(NC(=O)c2ccc(OC(C)C)c(OC)c2)cc1,"inconclusive: 22.4 µM [inhibitor, partial curve, poor fit]"
19,CCCCCc1ccc(OCCCC[n+]2cccc(C)c2)c(CCCCC)c1,"inconclusive: 15.8 µM [inhibitor, partial curve, poor fit]"
20,O=[N+]([O-])c1ccc(C2CC(c3ccccc3)=Nc3ccccc3S2)cc1 (configuration not stated),"inconclusive: 35.5 µM [inhibitor, single point]"
21,CC(=O)c1ccc(NC(=O)CCCN2C(=O)/C(=C/C(C)=C/c3ccccc3)SC2=S)cc1,inactive
